Results as given in the supplement of paper PMC10037445.
Values joined by “and” are separate entries in the source; they are usually repeats but may differ in a detail not shown here. Equal entries are not always repeated. In all, about 2,900 compounds were measured (“NF-kB SEAP reporter activity, fold change vs agonist alone”: median about 0.99, highest 2% from about 2.6 on). The list shows a part of the results.

What was measured:
[1] = tested on: RAW-Dual; experiment: NF-kB SEAP reporter activity, fold change vs agonist alone; higher = enhanced NF-kB activity
Procedure, shortened: (§1)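 After 50 nL of library stock was delivered by pin tool to RAW-Dual macrophages (50,000 cells/well, DMEM, 384-well plates), a PRR agonist was added 1 h later and the plates were kept at 37 °C, 5% CO2. Twenty hours later, IRF was read from supernatant by QuantiLuc luminescence and NF-κB by QuantiBlue absorbance at 620 nm. Reporter activity is stated as fold change over agonist-alone wells. Wells with IncuCyte confluency under 70% of agonist controls in both mask sets were counted as cytotoxic.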

[2] = tested on: RAW-Dual; experiment: NF-kB SEAP reporter activity, fold change vs agonist alone; cytotoxicity flag (confluency mask): not cytotoxic; higher = enhanced NF-kB activity
Procedure, shortened: as §1

[3] = tested on: RAW-Dual; experiment: NF-kB SEAP reporter activity, fold change vs agonist alone; cytotoxicity flag (confluency mask): cytotoxic (confluency <70% of control); higher = enhanced NF-kB activity
Procedure, shortened: as §1

[4] = library stock concentration (final ~1000-fold dilution): 10 mM, cytotoxicity flag (confluency mask): not cytotoxic, agonist: Imiquimod (TLR7) […]
[5] = library stock concentration (final ~1000-fold dilution): 10 mM, cytotoxicity flag (confluency mask): not cytotoxic, agonist: MPLA (TLR4) […]
[6] = agonist: ODN 1826 (TLR9) 0.5 ug/mL
[7] = agonist: Pam2CSK4 (TLR2/6) 0.1 ug/mL
[8] = agonist: Pam3CSK4 (TLR2/1) 0.1 ug/mL
[9] = library stock concentration (final ~1000-fold dilution): 10 mM water, cytotoxicity flag (confluency mask): not cytotoxic, agonist: Imiquimod (TLR7) […]
[10] = library stock concentration (final ~1000-fold dilution): 10 mM water, cytotoxicity flag (confluency mask): not cytotoxic, agonist: MPLA (TLR4) […]

O=C(O)c1ccc(Nc2ncc3c(n2)-c2ccc(Cl)cc2C(c2c(F)cccc2F)=NC3)cc1
NF-kB SEAP reporter activity [1, 4]: 0.802 | NF-kB SEAP reporter activity [1, 5]: 0.938

O=C(O)c1ccc(Nc2ncc3c(n2)-c2ccc(Cl)cc2C(c2c(F)cccc2F)=NC3)cc1 (library stock concentration (final ~1000-fold dilution): 10 mM)
NF-kB SEAP reporter activity ([2]; agonist: LPS (TLR4) 0.1 ug/mL): 0.705 | NF-kB SEAP reporter activity [2, 6]: 0.681 | NF-kB SEAP reporter activity [2, 7]: 0.555 | NF-kB SEAP reporter activity [2, 8]: 0.734

CCn1cc(-c2ccnc3[nH]c(-c4cccc(CN(C)C)c4)cc23)c(-c2ccc(NC(=O)N(C)C)cc2)n1 (library stock concentration (final ~1000-fold dilution): 10 mM)
NF-kB SEAP reporter activity ([2]; agonist: LPS (TLR4) 0.1 ug/mL): 6.43 | NF-kB SEAP reporter activity [2, 6]: 0.432 | NF-kB SEAP reporter activity [2, 7]: 1.83 | NF-kB SEAP reporter activity [2, 8]: 3.76

CCn1cc(-c2ccnc3[nH]c(-c4cccc(CN(C)C)c4)cc23)c(-c2ccc(NC(=O)N(C)C)cc2)n1
NF-kB SEAP reporter activity [1, 4]: 3.13 | NF-kB SEAP reporter activity [1, 5]: 2.67

CCC(=O)NS(=O)(=O)c1ccc(-c2c(-c3ccccc3)noc2C)cc1 (library stock concentration (final ~1000-fold dilution): 10 mM)
NF-kB SEAP reporter activity ([2]; agonist: LPS (TLR4) 0.1 ug/mL): 1.03 and 1.09 | NF-kB SEAP reporter activity [2, 6]: 1.01 and 0.952 | NF-kB SEAP reporter activity [2, 7]: 0.986 and 1.17 | NF-kB SEAP reporter activity [2, 8]: 0.953 and 0.862

CCOc1ccn(-c2ccc(F)cc2)c(=O)c1C(=O)Nc1ccc(Oc2ccnc(N)c2Cl)c(F)c1
NF-kB SEAP reporter activity [1, 4]: 0.67 | NF-kB SEAP reporter activity [1, 5]: 0.669

CCOc1ccn(-c2ccc(F)cc2)c(=O)c1C(=O)Nc1ccc(Oc2ccnc(N)c2Cl)c(F)c1 (library stock concentration (final ~1000-fold dilution): 10 mM)
NF-kB SEAP reporter activity ([2]; agonist: LPS (TLR4) 0.1 ug/mL): 0.469 | NF-kB SEAP reporter activity [2, 6]: 0.556 | NF-kB SEAP reporter activity [2, 7]: 0.22 | NF-kB SEAP reporter activity [2, 8]: 0.362

O=C(O)CCC(=O)O.O=C(OC1CN2CCC1CC2)N1CCc2ccccc2C1c1ccccc1 (centres undefined) (library stock concentration (final ~1000-fold dilution): 10 mM water)
NF-kB SEAP reporter activity ([2]; agonist: LPS (TLR4) 0.1 ug/mL): 1.12 | NF-kB SEAP reporter activity [2, 6]: 0.564 | NF-kB SEAP reporter activity [2, 7]: 0.782 | NF-kB SEAP reporter activity [2, 8]: 0.957

O=C(O)CCC(=O)O.O=C(OC1CN2CCC1CC2)N1CCc2ccccc2C1c1ccccc1 (centres undefined)
NF-kB SEAP reporter activity [1, 9]: 0.357 | NF-kB SEAP reporter activity [1, 10]: 1.25

COc1ccnc(CS(=O)c2nc3ccc(-n4cccc4)cc3[nH]2)c1C (centres undefined)
NF-kB SEAP reporter activity [1, 4]: 1.05 | NF-kB SEAP reporter activity [1, 5]: 0.891

COc1ccnc(CS(=O)c2nc3ccc(-n4cccc4)cc3[nH]2)c1C (centres undefined) (library stock concentration (final ~1000-fold dilution): 10 mM)
NF-kB SEAP reporter activity ([2]; agonist: LPS (TLR4) 0.1 ug/mL): 0.809 | NF-kB SEAP reporter activity [2, 6]: 0.974 | NF-kB SEAP reporter activity [2, 7]: 0.793 | NF-kB SEAP reporter activity [2, 8]: 0.885

CCN(CC)CCN(Cc1ccc(-c2ccc(C(F)(F)F)cc2)cc1)C(=O)Cn1c(SCc2ccc(F)cc2)nc(=O)c2c1CCC2 (library stock concentration (final ~1000-fold dilution): 10 mM)
NF-kB SEAP reporter activity ([3]; agonist: LPS (TLR4) 0.1 ug/mL): 0.18 | NF-kB SEAP reporter activity [3, 6]: 0.18 | NF-kB SEAP reporter activity [3, 7]: 0.0717 | NF-kB SEAP reporter activity [3, 8]: 0.141

CCN(CC)CCN(Cc1ccc(-c2ccc(C(F)(F)F)cc2)cc1)C(=O)Cn1c(SCc2ccc(F)cc2)nc(=O)c2c1CCC2
NF-kB SEAP reporter activity ([1]; library stock concentration (final ~1000-fold dilution): 10 mM, cytotoxicity flag (confluency mask): cytotoxic (confluency <70% of control), agonist: Imiquimod (TLR7) […]): 0.14 | NF-kB SEAP reporter activity ([1]; library stock concentration (final ~1000-fold dilution): 10 mM, cytotoxicity flag (confluency mask): cytotoxic (confluency <70% of control), agonist: MPLA (TLR4) […]): 0.249

O=C(O[C@@H]1Cc2c(O)cc(O)cc2O[C@@H]1c1cc(O)c(O)c(O)c1)c1cc(O)c(O)c(O)c1
NF-kB SEAP reporter activity [1, 4]: 0.341 | NF-kB SEAP reporter activity [1, 5]: 0.676

O=C(O[C@@H]1Cc2c(O)cc(O)cc2O[C@@H]1c1cc(O)c(O)c(O)c1)c1cc(O)c(O)c(O)c1 (library stock concentration (final ~1000-fold dilution): 10 mM)
NF-kB SEAP reporter activity ([2]; agonist: LPS (TLR4) 0.1 ug/mL): 1.49 | NF-kB SEAP reporter activity [2, 6]: 0.756 | NF-kB SEAP reporter activity [2, 7]: 1.12 | NF-kB SEAP reporter activity [2, 8]: 0.712

COC(=O)c1ccc2c(c1)NC(=O)/C2=C(\Nc1ccc(N(C)C(=O)CN2CCN(C)CC2)cc1)c1ccccc1 (library stock concentration (final ~1000-fold dilution): 10 mM)
NF-kB SEAP reporter activity ([2]; agonist: LPS (TLR4) 0.1 ug/mL): 1.63 | NF-kB SEAP reporter activity [2, 6]: 0.674 | NF-kB SEAP reporter activity [2, 7]: 1.05 | NF-kB SEAP reporter activity [2, 8]: 1.58

COC(=O)c1ccc2c(c1)NC(=O)/C2=C(\Nc1ccc(N(C)C(=O)CN2CCN(C)CC2)cc1)c1ccccc1
NF-kB SEAP reporter activity [1, 4]: 1.29 | NF-kB SEAP reporter activity [1, 5]: 1.33

Oc1ccc(Nc2nc(-c3ccc(Cl)cc3)cs2)cc1
NF-kB SEAP reporter activity [1, 4]: 0.665 | NF-kB SEAP reporter activity [1, 5]: 0.836

Oc1ccc(Nc2nc(-c3ccc(Cl)cc3)cs2)cc1 (library stock concentration (final ~1000-fold dilution): 10 mM)
NF-kB SEAP reporter activity ([2]; agonist: LPS (TLR4) 0.1 ug/mL): 0.311 | NF-kB SEAP reporter activity [2, 6]: 0.27 | NF-kB SEAP reporter activity [2, 7]: 0.227 | NF-kB SEAP reporter activity [2, 8]: 0.157

N#Cc1ccc2[nH]c(O)c(-c3ccc(CN4CCOCC4)cn3)c2c1
NF-kB SEAP reporter activity [1, 4]: 0.975 | NF-kB SEAP reporter activity [1, 5]: 0.952

N#Cc1ccc2[nH]c(O)c(-c3ccc(CN4CCOCC4)cn3)c2c1 (library stock concentration (final ~1000-fold dilution): 10 mM)
NF-kB SEAP reporter activity ([2]; agonist: LPS (TLR4) 0.1 ug/mL): 1.06 | NF-kB SEAP reporter activity [2, 6]: 0.902 | NF-kB SEAP reporter activity [2, 7]: 0.934 | NF-kB SEAP reporter activity [2, 8]: 0.805

Nc1nc(NC2CC2)c2ncn(C3C=CC(CO)C3)c2n1.Nc1nc(NC2CC2)c2ncn(C3C=CC(CO)C3)c2n1.O=S(=O)(O)O (centres undefined)
NF-kB SEAP reporter activity [1, 9]: 1.04 | NF-kB SEAP reporter activity [1, 10]: 1.07

Nc1nc(NC2CC2)c2ncn(C3C=CC(CO)C3)c2n1.Nc1nc(NC2CC2)c2ncn(C3C=CC(CO)C3)c2n1.O=S(=O)(O)O (centres undefined) (library stock concentration (final ~1000-fold dilution): 10 mM water)
NF-kB SEAP reporter activity ([2]; agonist: LPS (TLR4) 0.1 ug/mL): 1.22 | NF-kB SEAP reporter activity [2, 6]: 1.21 | NF-kB SEAP reporter activity [2, 7]: 1.31 | NF-kB SEAP reporter activity [2, 8]: 1.18

CCNC1CN(CCCOC)S(=O)(=O)c2sc(S(N)(=O)=O)cc21 (centres undefined) (library stock concentration (final ~1000-fold dilution): 10 mM)
NF-kB SEAP reporter activity ([2]; agonist: LPS (TLR4) 0.1 ug/mL): 1.54 | NF-kB SEAP reporter activity [2, 6]: 1.09 | NF-kB SEAP reporter activity [2, 7]: 1.3 | NF-kB SEAP reporter activity [2, 8]: 1.19
